# According to PubChem BioAssay AID360 (National Center for Advancing Translational Sciences (NCATS), 2006):
# About 550 (1.1%) of roughly 48,000 compounds were called active. This list was built around the results that the source calls inconclusive (neither active nor inactive); the mix of calls is not that of the screen. No stated cut-off is given here; in the data, active means potency below about 15 µM; inconclusive means mostly about 16 µM to 33 µM; inactive means weaker than that. No potency is given beside an inconclusive call; the fits are too rough.
# Molecular target: Lysosomal acid glucosylceramidase (Homo sapiens) (UniProt P04062)
# UniProt P04062, sequence (P04062 whole entry, looked up): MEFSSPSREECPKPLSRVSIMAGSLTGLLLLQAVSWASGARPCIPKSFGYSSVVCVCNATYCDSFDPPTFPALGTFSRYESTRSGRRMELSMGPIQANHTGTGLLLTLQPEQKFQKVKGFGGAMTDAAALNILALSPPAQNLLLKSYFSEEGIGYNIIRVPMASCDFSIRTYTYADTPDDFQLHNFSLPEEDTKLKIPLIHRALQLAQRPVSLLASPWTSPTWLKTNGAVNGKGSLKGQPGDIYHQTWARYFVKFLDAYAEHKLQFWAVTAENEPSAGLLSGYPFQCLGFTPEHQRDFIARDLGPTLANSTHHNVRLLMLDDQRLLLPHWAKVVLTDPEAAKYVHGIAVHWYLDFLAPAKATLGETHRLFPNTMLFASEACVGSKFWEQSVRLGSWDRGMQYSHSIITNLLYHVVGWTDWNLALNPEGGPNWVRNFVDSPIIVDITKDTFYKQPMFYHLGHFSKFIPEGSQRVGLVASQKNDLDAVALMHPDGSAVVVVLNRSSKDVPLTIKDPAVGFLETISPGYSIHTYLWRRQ
# Assay: Glucocerebrosidase;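 further: the screen sought inhibitors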
# Conditions: purified enzyme, resorufin glucoside fluorescence (screen aimed at inhibitors), 20 min
# How it was run: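 Compounds titrated against 0.2 nM normal enzyme, 30 uM resorufin beta-D-glucopyranoside substrate, citrate/phosphate buffer with taurocholate and tween-20, pH 5.9. Reaction ran 20 min at room temperature; fluorescence (Ex 548/Em 600) gave AC50.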
# Potency means the concentration at half of the fitted maximal effect.
row,Structure (SMILES),Potency
1,CCCCOc1ccc(CSc2n[nH]c(C)n2)cc1,inconclusive [decreasing]
2,CCOc1ccc2[nH]c(=O)c(CN(CCO)C(c3nnnn3C3CCCCC3)C(C)C)cc2c1 (stereo not drawn),inconclusive [decreasing]
3,CCCn1nc(NC(=O)c2cccs2)c2cc3cc(OC)ccc3nc21,inactive
4,CCN1CCc2c(sc3c2c(NCc2ccco2)nc2nnnn23)C1,inconclusive [decreasing]
5,COc1ccc(C2CC(C(F)(F)F)n3nc(C(=O)NCCN4CCOCC4)cc3N2)cc1 (stereo not drawn),inconclusive [decreasing]
6,O=C(NC1=NCCS1)C1COc2ccccc2O1 (stereo not drawn),inactive: > 76.9 µM
7,COc1ccc(CCNC(=O)CCCn2c(=O)[nH]c3cc(OC)c(OC)cc3c2=O)cc1OC,inconclusive [decreasing]
8,CCCc1nc(N)c(C#N)c(N)c1C#N,inconclusive [decreasing]
9,COc1cccc(OCCn2cc(C(=O)c3ccco3)c3ccccc32)c1,inactive: > 76.9 µM
10,O=C(Cn1cnc2c(oc3ccccc32)c1=O)N1CCCc2ccccc21,inactive: > 76.9 µM
11,COc1ccc(-n2cnnc2SCC(=O)N(C)C2CCS(=O)(=O)C2)cc1 (stereo not drawn),inactive: > 76.9 µM
12,FC(F)(F)c1cc(-c2ccco2)nc(-n2cnc3ccccc32)n1,active: 11.8 µM
13,Cc1c(C(=O)Nc2ccc3c(c2)OCO3)sc2nc(-c3ccccc3)cn12,inconclusive [decreasing]
14,CCOc1cc(C2C(C(=O)N3CCCCC3)=C(C)NC3=C2C(=O)CCC3)cc(Br)c1O (stereo not drawn),inactive: > 76.9 µM
15,CCCCNC(=O)Nc1c(C(=O)OCC)[nH]c2ccccc12,inactive: > 76.9 µM
16,CC1(C)CC(=O)C2=C(C1)Nc1[nH]n(-c3ccccc3)c(=O)c1C2c1ccc2c(c1)OCO2 (stereo not drawn),inconclusive [decreasing]
17,CCCC(c1nnnn1CS(=O)(=O)c1ccc(C)cc1)N1CCN(c2ccccc2)CC1 (stereo not drawn),inactive: > 76.9 µM
18,COc1ccc(Nc2nc(N)nc(CSc3n[nH]c(-c4ccccc4)n3)n2)cc1,inconclusive [decreasing]
19,COc1ccc(-c2noc(CSc3nc(-c4ccccc4)cc(=O)[nH]3)n2)cc1OC,inactive: > 76.9 µM
20,O=C(OCC#CCSc1nnc(-c2cccc3ccccc23)o1)c1cccs1,inactive: > 76.9 µM
21,O=C(NCc1cccs1)c1csc2ccccc12,inconclusive [decreasing]
22,Cc1cc(C(=O)COc2ccc(-c3nnco3)cc2)c(C)n1Cc1ccccc1,inconclusive [decreasing]
23,CCOCC(=O)Nc1ccc(S(=O)(=O)NCCc2ccccc2)cc1,inactive: > 76.9 µM
24,NC(=O)c1cnn2c(C(F)(F)F)cc(-c3ccc(F)cc3)nc12,inactive: > 76.9 µM
25,Cc1cc(NC(=O)CCCC(=O)N(CC(=O)NC2CCCCC2)c2ccccc2)no1,inconclusive [decreasing]
26,CCCOC(=O)c1ccc(Oc2cn[nH]c2-c2ccc(OC)cc2O)cc1,inconclusive [decreasing]

row,Structure (SMILES),Potency
1,CC(C)[C@H](NC(=O)Nc1ccc(S(N)(=O)=O)cc1)C(=O)O,inactive: > 76.9 µM
2,Cc1ccc(S(=O)(=O)NCC2CCC(C(=O)NCc3ccco3)CC2)cc1 (stereo not drawn),inconclusive [decreasing]
3,O=C(CCn1cnc2ccccc2c1=O)Nc1ccc(S(=O)(=O)N2CCCCC2)cc1,inactive: > 76.9 µM
4,Cc1cc(C)nc(NCC(O)CNc2ccccc2Cl)n1 (stereo not drawn),inconclusive [decreasing]
5,O=C(NC12CC3CC(CC(C3)C1)C2)c1cc2nc(-c3ccco3)cc(C(F)(F)F)n2n1,inconclusive [decreasing]
6,O=C(Nc1nc2c(s1)CCc1ccccc1-2)c1cccs1,inconclusive [decreasing]
7,COc1ccc(N(CC(=O)Nc2ccc3c(c2)OCCO3)S(=O)(=O)c2c(C)noc2C)cc1,active: 11.9 µM
8,CCCCN(C)S(=O)(=O)c1ccc(C(=O)Nc2nnc(CSC)o2)cc1,inconclusive [decreasing]
9,O=C1C2ON(c3ccccc3)C(c3ccccc3F)C2C(=O)N1c1ccccc1 (stereo not drawn),inconclusive [decreasing]
10,CCS(=O)(=O)CCSc1nc2c(cc1C#N)CCCC2,inconclusive [increasing]
11,CCCCCCSC1=C(C#N)C(c2ccc(O)cc2)CC(=O)N1 (stereo not drawn),inconclusive [decreasing]
12,CC(C)(C)C1CCC2(CC1)C(C#N)=C(SCC(=O)NC1CCCCC1)NC(=O)C2C#N (stereo not drawn),inconclusive [decreasing]
13,N#Cc1c(-c2ccco2)nc(SCC(=O)Nc2cccc(Cl)c2)[nH]c1=O,inconclusive [decreasing]
14,CCN(CC)S(=O)(=O)c1ccc(NC(=O)Cn2c(=O)oc3ccccc32)cc1,active: 8.47 µM
15,COc1ccc(CCN(Cc2cccs2)S(=O)(=O)c2ccc(-n3cnnn3)cc2)cc1OC,inconclusive [decreasing]
16,O=C(Nc1cccnc1)Nc1ccccc1Cl,active: 14.9 µM
17,COC(=O)c1ccc(Nc2nc(C)cc(=O)[nH]2)cc1,inconclusive [decreasing]
18,O=C(NCc1ccoc1)c1ccc(NC(=O)c2ccccc2Cl)cc1,inconclusive [decreasing]
19,N#Cc1nc(-c2ccc(OCc3ccccc3Cl)cc2)oc1NCCCn1ccnc1,inconclusive [decreasing]
20,CC(=O)c1sc(Nc2nc3ccc(F)cc3s2)nc1C,inactive: > 76.9 µM
21,CN(C(=O)c1ccccc1)c1nc2ccccc2s1,inactive: > 76.9 µM
22,Cc1cc(C)nc(/N=C2\NC(=O)CC(C(=O)O)N2c2ccc(Oc3ccccc3)cc2)n1 (stereo not drawn),inactive: > 76.9 µM
23,COc1ccccc1NC(=O)C(C)N1CCN(C/C=C/c2ccccc2)CC1 (stereo not drawn),inconclusive [decreasing]
24,CCCC(=O)Nc1cccc(-c2nc3ccccc3o2)c1,inactive: > 76.9 µM
25,CC1CCc2c(C(=O)N3CCN(S(=O)(=O)c4cccs4)CC3)csc2C1 (stereo not drawn),inconclusive [decreasing]
26,COC(=O)c1cccc(OCC(O)Cn2cnc3cc(C)c(C)cc32)c1 (stereo not drawn),inconclusive [decreasing]

row,Structure (SMILES),Potency
1,Cc1ccc2nc3c(c(C(=O)O)c2c1)CCC3,inactive: > 76.9 µM
2,Oc1ccccc1CN1CCCN(Cc2ccccc2O)C1,inconclusive [decreasing]
3,Clc1ccc2oc(-c3ccccn3)nc2c1,inactive: > 76.9 µM
4,Cc1ccc(C)c(NC(=O)c2ccccc2O)c1,inconclusive [decreasing]
5,COCCCNC(=O)C1CCN(c2nc(C)cc(C)n2)CC1,inactive: > 76.9 µM
6,CCC(=O)Nc1cc(NC(=O)CSc2ncc(-c3ccc(F)cc3)n2Cc2ccco2)ccc1C,inconclusive [decreasing]
7,COCC(=O)N(c1ccc(C(C)C)cc1)C1C=CS(=O)(=O)C1 (stereo not drawn),inconclusive [decreasing]
8,COc1ccc2c(c1)CCc1c(C(=O)NCCc3ccc(OC)c(OC)c3)noc1-2,inconclusive [increasing]
9,CC(=O)Oc1c(S(=O)(=O)c2ccc(C)cc2)c(C)nn1C(C)(C)C,inconclusive [decreasing]
10,CC1(C)Cc2c(sc3ncn4nc(CCC(=O)O)c(=O)nc4c23)CO1,inactive: > 76.9 µM
11,O=C(Nc1ccc(Nc2ccccc2)cc1)c1ccco1,active: 3 µM
12,COCCNc1c(-c2ccc(O)cc2)nc2ccc(Cl)cn12,active: 6.94 µM
13,CCC(=O)Nc1ccc(C(=O)Nc2cccnc2)cc1,active: 6.59 µM
14,NC(=O)C1CCN(c2nc(-c3ccccc3)nc3c2oc2ccccc23)CC1,active: 8.27 µM
15,CCC(C)NC(=O)CSC1=Nc2ccccc2C2=NC(CC(=O)NCc3ccc(F)cc3)C(=O)N12 (stereo not drawn),inactive: > 76.9 µM
16,Cc1cc(N/C(=N\S(=O)(=O)c2ccc(Cl)cc2)c2ccc(F)cc2)no1,inconclusive [decreasing]
17,O=C(Nc1ccc(Cl)cc1)N1CCC(c2nc(-c3cccs3)no2)CC1,inconclusive [decreasing]
18,CCn1c2ccccc2c2cc(NC(=O)C3CCN(S(=O)(=O)c4cccs4)CC3)ccc21,active: 2.78 µM
19,COc1ccc(-c2csc(Cc3nnc4n3CCCCC4)n2)cc1,inactive: > 76.9 µM
20,Cc1cccc(OCC(O)Cn2c(=N)n(CCN3CCOCC3)c3ccccc32)c1 (stereo not drawn),inconclusive [decreasing]
21,O=C(NC1CCCC1)C(c1cccs1)N(Cc1ccco1)C(=O)Cn1nnc(-c2cccs2)n1 (stereo not drawn),active: 10.8 µM
22,COc1ccc(-c2nc3c(=O)n(C)c(=O)[nH]c3n2CCc2ccccc2)cc1,inconclusive [decreasing]
23,O=C(Nc1cccnc1)c1ccc(COCC(F)(F)F)cc1,active: 5.09 µM
24,CCOC(=O)c1cc(-c2ccco2)nc2c1c(C)nn2-c1ccccc1,inconclusive [increasing]
25,CCN1CCN(c2oc(COc3ccc(-c4ccccc4)cc3)nc2C#N)CC1,inconclusive [decreasing]
26,CCCOc1ccc(C2C(C(=O)OC)=C(C)N=C3SCCC(=O)N32)cc1OCC (stereo not drawn),inactive: > 76.9 µM
